PubChem BioAssay AID488969 (Vanderbilt High Throughput Screening Facility, 2010)
The full ranking holds about 110,000 compounds; the median of “z-score” is about -0.1, and the highest 2% start at about 2. Some of the results follow.

target: Metabotropic glutamate receptor 8 (Rattus norvegicus) (UniProt P70579); assay: rat mGluR8 modulators via GIRK flux, primary screen, cell-based, thallium flux, HTS (AID 488969); conditions: HEK293 rat mGluR8, GIRK (G protein-gated inwardly rectifying potassium channel) thallium flux, FluoZin2; at 10 µM; stronger effect = higher value; submaximal glutamate (EC20) added with thallium
Sequence of UniProt P70579 (P70579 whole entry, looked up): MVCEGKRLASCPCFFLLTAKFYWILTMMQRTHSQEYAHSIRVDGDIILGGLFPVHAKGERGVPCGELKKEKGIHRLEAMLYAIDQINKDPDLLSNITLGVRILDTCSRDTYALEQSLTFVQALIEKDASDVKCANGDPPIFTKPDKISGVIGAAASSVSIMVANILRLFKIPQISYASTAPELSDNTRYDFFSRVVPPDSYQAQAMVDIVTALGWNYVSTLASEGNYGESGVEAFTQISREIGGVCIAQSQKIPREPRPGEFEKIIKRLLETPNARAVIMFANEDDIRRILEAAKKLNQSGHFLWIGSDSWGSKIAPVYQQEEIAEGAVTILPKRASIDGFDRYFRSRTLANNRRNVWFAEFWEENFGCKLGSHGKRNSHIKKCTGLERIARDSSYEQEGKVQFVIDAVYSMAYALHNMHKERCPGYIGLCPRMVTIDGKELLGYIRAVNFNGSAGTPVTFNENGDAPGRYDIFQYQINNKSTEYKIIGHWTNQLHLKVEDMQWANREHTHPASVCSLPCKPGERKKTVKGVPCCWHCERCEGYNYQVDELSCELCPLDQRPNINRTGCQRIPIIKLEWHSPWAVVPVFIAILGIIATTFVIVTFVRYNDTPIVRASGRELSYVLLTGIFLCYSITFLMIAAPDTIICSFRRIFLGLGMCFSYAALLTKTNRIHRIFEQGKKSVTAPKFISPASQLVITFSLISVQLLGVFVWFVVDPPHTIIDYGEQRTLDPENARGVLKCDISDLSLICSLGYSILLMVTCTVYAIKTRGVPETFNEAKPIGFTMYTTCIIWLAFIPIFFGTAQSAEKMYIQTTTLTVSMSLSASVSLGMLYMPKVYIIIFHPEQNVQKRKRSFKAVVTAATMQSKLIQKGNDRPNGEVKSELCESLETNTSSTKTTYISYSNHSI

SMILES	z-score
Cc1nnc(SCC(=O)Nc2ncc3c(n2)CC(C)(C)CC3=O)s1	0.0881
CCN(CC)C(=O)N1CCC(NC(=O)Cc2ccccc2)CC1	0.989
C/C=C/c1ccc(OCCCCOc2ccccc2C(C)=O)c(OC)c1	-0.015
O=C(COc1ccccc1)OCc1cc2ccccc2[nH]c1=O	-0.181
CCn1c(SCC(=O)Nc2ccc(C(C)=O)cc2)nc2nc3c(cc2c1=O)CCCC3	-1.57
CCCC(=O)NC(=S)Nc1cccc(NC(=O)c2ccc(Cl)cc2Cl)c1	-0.0719
COc1ccc(C(=O)Nc2ccccc2C(=O)N(Cc2ccco2)C(C(N)=O)C(C)C)cc1 (stereo not given)	0.216
CCOC(=O)Cc1nnc(NC(=O)c2ccccc2OC)s1	-0.102
COc1ccc(NC(C)C(=O)Nc2ccc(C(C)(C)C)cc2)cc1Cl (stereo not given)	-0.0816
Cc1ccc(S(=O)(=O)N[C@H](C(=O)OCC(=O)N2N=C(c3ccc(Cl)cc3)CC2c2ccco2)C(C)C)cc1 (stereo not given in full)	-0.0385
Cc1cc(NC(=O)CSc2n[nH]c(-c3cccs3)n2)no1	-0.414
c1c2c(cc3sc(N4CCOCC4)nc13)OCO2	-0.293
CCOc1ccc(N2C(=O)CC(n3ccc(C)n3)C2=O)cc1 (stereo not given)	0.896
O=C(CN(c1ccc(Cl)c(C(F)(F)F)c1)S(=O)(=O)c1ccccc1)N1CCOCC1	0.315
C=CCn1c(Sc2ccccc2)nc2c1c(=O)[nH]c(=O)n2C	-0.222
Cc1cccc(NC(=O)c2ccc(C3SCC(=O)N3CCc3ccccc3)cc2)c1 (stereo not given)	-0.349
Cc1onc(-c2ccccc2Cl)c1C(=O)Nc1nnc(Cc2ccc(Cl)cc2)s1	-0.0869
Cc1onc(-c2ccccc2Cl)c1C(=O)Nc1nnc(-c2cccc([N+](=O)[O-])c2)s1	-0.386
CCS(=O)(=O)Nc1cccc(C2=NN(S(=O)(=O)c3ccccc3)C(c3cccs3)C2)c1 (stereo not given)	-0.425
Cc1ccc(CN2CCN(/N=C/c3sccc3C)CC2)c(C)c1	0.357
COc1cc(OC)cc(C(=O)Nc2ncc3c(n2)CC(C)CC3=O)c1 (stereo not given)	-0.188
O=c1[nH]c(CSc2ncccn2)nc2c1cnn2-c1ccccc1	-1.65
CCOC(=O)c1cc(C)sc1/N=C/C1C(=O)CC(C)(C)CC1=O	-0.492
O=c1cc(CN2CCc3ccccc32)nc2sccn12	0.496
CC(C)c1ccc(S(=O)(=O)N2CCN(C(C)C(=O)Nc3ccccc3-c3ccccc3)CC2)cc1 (stereo not given)	-0.0239
COCC(=O)n1nc(-c2ccccc2)nc1NCc1ccc(F)cc1	0.19
CCC(CC)c1nnc(NC(=O)Oc2ccccc2)s1	-0.366
CC(=O)Nc1ccc(-c2ccccc2)s1	0.021

SMILES	z-score
CCc1nnc(NC(=O)C2CCCN(c3nc4ccccc4s3)C2)s1 (stereo not given)	-0.0951
CCC(C)c1ccc(NC(=O)C2CCN(c3ncccn3)CC2)cc1 (stereo not given)	1.06
Cc1cc(C)n(-c2ccc([N+](=O)[O-])cc2)n1	0.27
O=C(N/N=C/c1ccc(O)cc1)c1nc(-c2ccccc2)n(-c2ccccc2)n1	-0.387
COc1cccc(NC(=O)C23CCC(C)(C(=O)O2)C3(C)C)c1 (stereo not given)	0.37
COC(=O)c1cc(S(=O)(=O)n2nc(C)c(Br)c2C)c(Cl)cc1Cl	-0.276
Cc1ccc(C)c(N(CC(=O)NCCC2=CCCCC2)S(C)(=O)=O)c1	-0.0583
CC1=NNC(=O)C1C(c1ccc(F)cc1)C(C#N)C#N (stereo not given)	-0.411
Cc1ccc(NC(=O)c2cc(-n3cnnc3)ccc2Cl)cc1	-0.0854
CCn1c(SCc2nc(-c3ccc(OC)c(OC)c3)no2)nnc1-c1cccs1	-1.5
CCCOc1ccccc1C(=O)N(Cc1cccs1)C1CCS(=O)(=O)C1 (stereo not given)	1.01
O=C1c2ccccc2C(=O)N1CCCc1nc(-c2ccccc2)no1	0.115
COn1c(=O)c(-c2ccc(Cl)cc2)[n+]([O-])c2ccccc21	-0.503
Cc1cc(C)nc(NC(=NCCc2c[nH]c3ccccc23)NC(=O)Nc2ccc(Cl)cc2)n1	0.791
Cc1ccc(S(=O)(=O)NCCC(=O)OCn2nnc3ccccc3c2=O)cc1	-0.242
Cc1cc(C)cc(-n2c(C)cc(/C=N\NC(=O)COc3cccc4cccnc34)c2C)c1	-0.306
COC(=O)CSc1nnc(CSc2nc(C)cc(C)n2)n1Cc1ccco1	-0.942
Cc1onc(-c2ccccc2Cl)c1C(=O)Nc1cccnc1	0.0438
O=c1[nH]n(-c2ccc(F)cc2)c2ncccc12	-0.19
COC(=O)Nc1cc(C)nc2ccccc12	0.301
CC(C)C(c1nnnn1Cc1ccc2c(c1)OCO2)N1CCN(c2ccccc2)CC1 (stereo not given)	0.56
CC(C)C(C(=O)Nc1ccc(N2CCOCC2)cc1)N1C(=O)c2ccccc2C1=O (stereo not given)	0.0739
O=C(OC1CCS(=O)(=O)c2sccc21)c1ccccc1 (stereo not given)	-0.137
CCN(CC)S(=O)(=O)c1ccc(NC(=O)c2ccc(Sc3nncn3C)c([N+](=O)[O-])c2)cc1	-0.262
O=C(COC(=O)c1nc(-c2ccccc2)n(-c2cccc(C(F)(F)F)c2)n1)NCc1cccs1	-1.35
O=C1CC(C(=O)O)c2ccccc2N1 (stereo not given)	-0.483
Cn1nnnc1SCC(=O)NCC(=O)c1ccccc1	0.594
